Assay results reported in PubChem BioAssay AID360 (National Center for Advancing Translational Sciences (NCATS), 2006).
The campaign covered roughly 48,000 compounds. About 550 (1.1%) were called active. Not shown: some 4% with an inconclusive outcome. Cut-off read from the data, not from the text of the source: active = potency below about 15 µM; inconclusive = mostly about 16 µM to 33 µM; inactive = weaker than that. The list shows a part of the results.

The compounds below were run against Lysosomal acid glucosylceramidase (Homo sapiens) (UniProt P04062) (assay: Glucocerebrosidase). Conditions: purified enzyme, resorufin glucoside fluorescence (screen aimed at inhibitors), 20 min; series mostly up to 77 µM.
Description: NCGC Assay Overview: Beta-glucocerebrosidase catalyzes the hydrolysis of beta-glucocerebroside to glucose and ceramide. The inherited deficiency of beta-glucocerebrosidase results in Gaucher disease, which is characterized by a wide variety of symptoms including hepatosplenomegaly, anemia, thrombocytopenia, bony lesions and bone marrow infiltration with characteristic storage cells, known as Gaucher cells. There are also forms of the disorder affecting the central nervous system. Patients with the same genotypes can manifest with diverse clinical presentations and it is believed that improper folding and trafficking of beta-glucocerbrosidase may contribute to the phenotypes observed. Low molecular weight molecules, acting as chaperones, may potentially restore trafficking of misfolded beta-glucocerebrosidase from the endoplasmic reticulum to the lysosomes, thereby enhancing functional lysosomal beta-glucocerebrosidase activity. Using normal beta-glucocerebrosidase, an assay was developed to screen for small molecule inhibitors that could potentially act as molecular chaperones on the mutant forms [developed with NIH investigator Dr. Ellen Sidransky's laboratory]. Two pro-fluorescent substrates were chosen for two screens against a small molecule library. One beta-glucocerebrosidase assay used Resorufin beta-D-Glucopyranoside (Marker Gene Technology Inc.), generating a red fluorescent product. The second assay used Fluorescein di-beta-D-Glucopyranoside, generating a blue fluorescent product. […] The IC50 values of Conduritol B Epoxide, a known glucocerebrosidase inhibitor, were determined to be 87.5 uM and 117 uM, respectively. The use of two difference pro-fluorescent substrates in the screens helped to eliminate false positives. All compounds were screened in a titration series resulting in AC50s (e.g., IC50s or EC50s).
NCGC Assay Protocol Summary: Both enzyme and substrate were diluted in buffer composed of 50mM citric acid/KH2PO4, 10mM sodium taurocholate and 0.01% tween-20 at pH 5.9. The final concentration of the enzyme was 0.2 nM in both assays. The compound library was titrated in 7 to 15 concentrations for the primary screens with a final concentration ranging from 0.6 nM to 50 uM. This particular assay protocol is for the "red" substrate, and it was performed in 1536-well plate format as follows: Red fluorescence substrate assay: 2 uL enzyme 23 nL compound 1 uL substrate (final concentration of 30 uM) Incubate at room temperature (RT) for 20 minutes Read the plate in Viewlux plate reader (Ex=548(7) and Em=600(10)).
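Note: the screen sought inhibitors.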
Potency is the fitted concentration of half-maximal effect.

Sequence of UniProt P04062 (P04062 whole entry, looked up): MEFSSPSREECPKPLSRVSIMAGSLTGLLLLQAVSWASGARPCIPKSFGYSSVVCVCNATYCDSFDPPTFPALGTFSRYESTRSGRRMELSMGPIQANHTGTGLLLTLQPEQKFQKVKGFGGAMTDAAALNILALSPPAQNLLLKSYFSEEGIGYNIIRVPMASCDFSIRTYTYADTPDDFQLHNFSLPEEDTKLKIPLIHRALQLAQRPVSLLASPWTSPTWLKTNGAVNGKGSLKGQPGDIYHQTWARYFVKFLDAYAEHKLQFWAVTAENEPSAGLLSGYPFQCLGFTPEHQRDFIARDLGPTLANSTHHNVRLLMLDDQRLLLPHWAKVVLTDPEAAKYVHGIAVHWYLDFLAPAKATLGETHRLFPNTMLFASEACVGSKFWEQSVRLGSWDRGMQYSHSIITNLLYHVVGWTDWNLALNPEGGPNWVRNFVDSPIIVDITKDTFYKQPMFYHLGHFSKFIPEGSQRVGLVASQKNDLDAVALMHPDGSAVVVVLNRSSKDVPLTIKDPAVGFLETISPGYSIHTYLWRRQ

Potency, inactive:
O=C(COC(=O)c1ccc(Br)o1)Nc1ccc(S(=O)(=O)N2CCCC2)cc1 > 76.9 µM
CCCn1c(SCC(=O)NCCc2ccc(Cl)cc2Cl)n[nH]c1=O > 76.9 µM
COc1cccc2cc(C(=O)N3CCc4ccccc4C3)c(=O)oc12 > 76.9 µM
COc1cc(Cl)c(C)cc1NC(=O)CSC > 76.9 µM
COc1cc(OC)cc(C(=O)NCc2cccnc2)c1 > 76.9 µM
COc1ccc(OC)c(CNc2nc3ccccc3n2CCN2CCCCC2)c1 > 76.9 µM
COc1ccccc1NC(=O)COc1ccc(C(=O)OCC(=O)N2CCCC2=O)cc1OC > 76.9 µM
CC(=O)c1sc(NC(=O)C=C(C)C)nc1C > 76.9 µM
CCn1c(=O)cc(SCC(=O)N2CCN(Cc3ccc4c(c3)OCO4)CC2)c2ccccc21 > 76.9 µM
Cn1c(C(=O)OCC(=O)NCCc2ccccc2)cc2sccc21 > 76.9 µM
Cc1nc(SCC(=O)N2CCC(C(N)=O)CC2)n[nH]1 > 76.9 µM
CCN(CCCNC(=O)CC(C(=O)N1CCc2ccccc21)n1ccnc1)c1ccccc1 (stereo not drawn)
Cc1nnc(SCC(=O)NCC2CCCO2)n1-c1ccccc1 (stereo not drawn) > 76.9 µM
O=C(Cn1c(=O)n(CCCC(=O)NC2CCCC2)c(=O)c2ccccc21)NCCC1=CCCCC1 > 76.9 µM
CN1/C(=C\C(=O)Nc2cccnc2)c2ccccc2CC1(C)C > 76.9 µM
O=C1c2cccnc2C(=O)N1C1CCCCC1 > 76.9 µM
OCCNc1ccc(Cl)cc1 > 76.9 µM
O=C(OCc1c(Cl)cccc1Cl)c1ccccn1 > 76.9 µM
COc1ccc(C2(O)CCN(CC(=O)Nc3nccs3)CC2)c(OC)c1 > 76.9 µM
COCc1cc(C)c(C#N)c(=S)[nH]1 > 76.9 µM
COc1cccc(C(=O)N(CN2CCCC2=O)c2cc(C)on2)c1 > 76.9 µM
Cc1nc2cc(O)ccc2n1C > 76.9 µM
Cn1c(SC2=CS(=O)(=O)c3ccccc32)nc2ccccc21 > 76.9 µM
CCOC(=O)c1c(C)[nH]c(NC(=O)Nc2c(C)n(C)n(-c3ccccc3)c2=O)c1C > 76.9 µM
CCN(CC)c1nc2ccccc2nc1C(C#N)C(=O)NCCc1ccccc1 (stereo not drawn) > 76.9 µM
COC(=O)COc1ccc(C(=O)OC)cc1 > 76.9 µM
Fc1ccc(N2CCN(c3nc(-c4ccco4)cc(C(F)(F)F)n3)CC2)cc1 > 76.9 µM
Cc1ccc(NC(=O)CCNS(=O)(=O)c2ccc3c(c2)oc(=O)n3C)c(C)c1 > 76.9 µM
O=C(NCCc1ccccc1)c1cc(-c2ccco2)on1 > 76.9 µM
O=c1[nH]c2ccccc2n1CCCSCCCn1c(=O)[nH]c2ccccc21 > 76.9 µM
CN(C)S(=O)(=O)c1ccc(C(=O)N2CCC(c3nc4ccccc4o3)CC2)cc1 > 76.9 µM
O=C(Nc1nc2ccccc2n1Cc1ccccc1)c1ccco1 > 76.9 µM
CC1CCN(c2nnc(N)s2)CC1 > 76.9 µM
Cc1cc2ccccc2c(=O)n1CC(=O)NCC(=O)N1CCN(c2ccccc2)CC1 > 76.9 µM
CC(C)(C)c1nc2ccccc2c2nnc(SCC(=O)NCc3ccco3)n12 > 76.9 µM
CC(C)OCC(O)Cn1c(N2CCCC2)nc2c1c(=O)[nH]c(=O)n2C (stereo not drawn) > 76.9 µM
O=C(NCC1CCCO1)c1ccccc1-c1nc(-c2ccc(Cl)cc2)no1 (stereo not drawn)
C=CCn1c(Cc2cccs2)nnc1SCC(=O)Nc1cccc(OC)c1 > 76.9 µM
COc1ccc(Cc2nn3c(-c4cc(OC)c(OC)c(OC)c4)nnc3s2)cc1 > 76.9 µM
Cc1cc(C)cc(OCC(=O)NCc2nc(-c3ccccc3)no2)c1 > 76.9 µM
O=C(CN1CCN(C(=O)c2c(F)cccc2F)CC1)Nc1ccccc1F > 76.9 µM
CCN1CCN(C(=O)C2c3cc(OC)c(OC)cc3C(=O)N(C)C2c2ccc(SC)cc2)CC1 (stereo not drawn) > 76.9 µM
CC1=C(C(=O)Nc2cc(C)ccn2)C(c2ccc(C)cc2)C2=C(CCCC2=O)N1 (stereo not drawn) > 76.9 µM
COC(=O)c1cccc(NC(=O)Cn2cnc3ccccc3c2=O)c1 > 76.9 µM
COc1cccc(-c2nc(S(=O)(=O)c3ccccc3)c(N3CCOCC3)o2)c1 > 76.9 µM
CCn1nnnc1SCC(=O)Nc1cc(OC)cc(OC)c1 > 76.9 µM
O=C1c2ccccc2C(=O)N1CCCCN1CCN(CCCCN2C(=O)c3ccccc3C2=O)CC1 > 76.9 µM
CCOC(=O)CCNC(C)C1COc2ccccc2O1 (stereo not drawn) > 76.9 µM
Cc1ccc(S(=O)(=O)NCC(=O)NC2CCCCCC2)cc1 > 76.9 µM
Cc1ccc(S(=O)(=O)NCC(c2cccnc2)N(C)C)cc1 (stereo not drawn) > 76.9 µM
COc1ccc(OC)c(C(=O)COC(=O)c2ccccc2O)c1 > 76.9 µM
O=C(CCS(=O)(=O)c1ccc(Br)s1)N1CCc2ccccc21 > 76.9 µM
COC(=O)c1ccccc1NC(=O)C1CCN(S(C)(=O)=O)CC1 > 76.9 µM
Cc1sc2nnn(CC(=O)N3CCN(C(=O)c4ccco4)CC3)c(=O)c2c1C > 76.9 µM
CCOc1cc(S(=O)(=O)NCC2OCCc3ccccc32)c(OCC)cc1-n1cnnn1 (stereo not drawn) > 76.9 µM
CCc1ccc(CCC(=O)Nc2nc(CC(C)=O)ns2)o1 > 76.9 µM
COc1ccccc1N1CCN(C(=O)C(Cc2ccccc2)NC(=O)C2CCCCC2)CC1 (stereo not drawn) > 76.9 µM
O=C(Cn1cnc2c(nnn2-c2ccc(F)cc2)c1=O)N1CCCc2ccccc21 > 76.9 µM
